Results as given in PubChem BioAssay (NCI).
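Grown in 96-well plates, cells were treated for 48 hours with each compound at five concentrations. Insufficient inhibition: endpoint recorded as highest concentration tested. GI50: concentration for 50% inhibition of growth. TGI marks complete inhibition of growth.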

Tested on: NCI-H322M lung
Assay: NCI-60 cell line screen, 48 h

Row | Structure (SMILES) | TGI [µM] | GI50 [µM]
1 | NC(=S)NNC(=S)NC(=O)c1ccco1 | > 10 | –
2 | COC(=O)c1ccc(C(=O)OC)c2nc3cc(C)ccc3nc12 | > 100 | –
3 | CC1=NN2C(=N)/C(=C/c3ccccc3)C(=O)N=C2S1 | > 100 | –
4 | COc1cccc(NC(=O)CC(=O)N2N=C(C)C(N=Nc3ccc(C(=O)O)cc3)C2=O)c1 (stereo not given) | > 100 | –
5 | O=C1/C(=C/c2ccc(O)cc2)CCC1CNc1ccccc1 (stereo not given) | 26.2 | –
6 | C=C(C)[C@@H]1CC[C@]2(CO)CC[C@]3(C)[C@H](CC[C@@H]4[C@@](C)(CCCN)[C@H](C(=C)C)CC[C@]43C)[C@@H]12 | 3.02 | 1.66
7 | O=[N+]([O-])c1ccc2c(c1)n1c(N3CCCC3)[n+]3ccccc3c1c1c3cccc[n+]3c(N3CCCC3)n21 | > 100 | –
8 | O=C1C(Cl)=C(c2ccc([N+](=O)[O-])cc2)C(=O)c2c(O)cccc21 | 12.2 | –
9 | N#Cc1c(N2CCN(c3ccc([N+](=O)[O-])cc3)CC2)[n+](=O)c2ccc(-c3ccc([N+](=O)[O-])cc3)cc2n1[O-] | > 100 | –
10 | NC(=S)N/N=C1\CCCC1C(O)(C(F)(F)Cl)C(F)(F)Cl (stereo not given) | > 10 | –
11 | Nc1cc2[nH]cnc2c(=O)[nH]1 | > 300 | –
12 | Nc1nc(N)nc(CC(=O)O)n1 | > 100 | –
13 | C=CC(OC(C)=O)c1ccc(OC(C)=O)cc1 (stereo not given) | 31.7 | –
14 | C[C@]12CCC(=O)C=C1CC[C@@H]1[C@@H]2[C@@H](O)C[C@@]2(C)[C@H]1CC[C@]2(O)C(=O)COC(=O)CCC1CCCC1 | > 100 | –
15 | CCn1c(=O)c2c3ccc(OC(C)=O)cc3[nH]c2c2ccc(OC(C)=O)cc21 | 91.1 | –
16 | CC1=NOC(=O)C1N=Nc1ccc(Br)c(C)c1 (stereo not given) | 93.2 | –
17 | COc1ccc(OC)c(C[P+](c2ccccc2)(c2ccccc2)c2ccccc2)c1 | > 100 | –
18 | CCC[CH2][Sn]1([CH2]CCC)[O]C(=O)c2ccc(N)cc2[O]1 | 2.83 | 1.47
19 | Cn1c(=O)n(CC2CS2)c2ccccc21 (stereo not given) | > 100 | –
20 | CC(=O)Nc1ccc(/C=C2/NC(=S)N(/C=C3\C(=O)Oc4ccccc4C3=O)C2=O)cc1 | > 100 | –
21 | CCOC(=O)c1c(-c2ccccc2)c(C(OC(c2ccccc2)c2c(-c3ccccc3)c(C(=O)OCC)n3ccccc23)c2ccccc2)c2ccccn12 (stereo not given) | > 100 | –
22 | C=C(CCOC)CCC1CCCCC(=C)[C@H]1O (stereo not given in full) | > 100 | –
23 | CC(C#N)N(CCc1ccccc1)C(=O)c1ccccc1 (stereo not given) | > 100 | –
